Source: PubChem BioAssay (NCI)
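All cell lines were grown in 96-well plates and treated with compound for 48 hours.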 The source holds more than one record for some entries. This list holds those alone. Rule as the data show it: active = GI50 below about 0.43 µM; inactive = the rest. An entry can have further records. For part of these data: The values listed for one entry repeat one measurement in other runs, samples, wells, individuals or studies.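 The concentration for 50% growth inhibition is given as GI50.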 For part of these data: Records of one sample usually come from different ranges of test concentrations, which the source does not state; some values may only mark the edge of a range.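 TGI: concentration producing complete growth inhibition.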 Marks in square brackets tell the records apart. Letters count within one entry.

Legend:
Test in all cases: NCI anticancer screen, dose series, 48 h
[1] = system: HCC-2998 colon
[2] = system: M14 melanoma
[3] = system: SNB-75 CNS
[4] = system: HOP-62 NSCLC
[5] = system: IGROV1 ovarian
[6] = system: LOX IMVI melanoma
[7] = system: NCI-H226 lung
[8] = system: NCI-H522 lung
[9] = system: OVCAR-3 ovarian
[10] = system: SF-268 CNS
[11] = system: SK-MEL-5 melanoma
[12] = system: SNB-19 CNS
[13] = system: TK-10 renal
[14] = system: CCRF-CEM leukemia
[15] = system: HL-60(TB) leukemia
[16] = system: K-562 leukemia
[17] = system: A498 renal
[18] = system: ACHN renal
[19] = system: DLD-1 colon
[20] = system: DMS 273 small cell lung
[21] = system: HCT-15 colon
[22] = system: KM20L2 colon
[23] = system: MOLT-4 leukemia
[24] = system: OVCAR-5 ovarian
[25] = system: SK-MEL-28 melanoma
[26] = system: SR leukemia

Compound: O=C(NOCCO)c1ccc2cncn2c1Nc1ccc(I)cc1F
- TGI [1]: 790 nM [sample A, mean of 2 tests] and 19.5 µM [sample B, mean of 2 tests]
- TGI [2]: > 10 µM [sample A, mean of 2 tests] and 27.3 nM [sample B, mean of 2 tests]

Compound: COc1cc(C2c3cc4c(cc3[C@@H](Nc3ccc(F)cc3)C3COC(=O)[C@H]23)OCO4)cc(OC)c1O (stereo partly drawn)
- TGI [3]: 963 nM and 13.5 µM

Compound: C=C1C(C)C2C(Cc3ccccc3)NC(=O)C23C(OC(C)=O)C=CC(C)(O)C(=O)C(C)C/C=C/C3C1O (stereo not drawn)
- TGI [4]: 1.14 µM and 120 µM
- TGI [5]: 28.2 µM and > 500 µM
- TGI [6]: 11 µM and 773 nM
- TGI [2]: 16.7 µM and > 500 µM
- GI50 [7]: 16.4 nM and > 500 µM
- GI50 [8]: 41.8 nM [1 test] and 806 nM [mean of 2 tests]
- GI50 [9]: 95 nM and > 500 µM
- TGI [10]: 48.4 µM and > 500 µM
- TGI [11]: 20.5 µM and > 500 µM
- TGI [12]: 13 µM and > 197 µM
- TGI [3]: 745 nM and 23.1 µM
- TGI [13]: 40 µM and > 500 µM

Compound: Nc1ncc(CN2CCCC2)c(-c2ccccc2O)n1
- TGI [14]: 65.9 µM and > 750 µM
- TGI [15]: 20.5 µM and > 750 µM
- TGI [16]: 31.2 µM and > 750 µM

Compound: COc1cc2c(cc1O)CCN[C@@]21CS[C@H]2c3c(OC(C)=O)c(C)c4c(c3C(COC1=O)N1C2C2NC(Cc3cc(C)c(OC)c(O)c32)[C@@H]1O)OCO4 (stereo partly drawn)
- GI50 [17]: 2.4e-07 µg/mL and 0.0045 µg/mL
- GI50 [18]: 1.9e-07 µg/mL and 0.0045 µg/mL
- TGI [19]: 3.4e-05 µg/mL and 0.195 µg/mL
- TGI [20]: 2.7e-07 µg/mL and 0.0045 µg/mL
- GI50 [1]: 1.7e-07 µg/mL and 0.0045 µg/mL
- TGI [1]: 4.7e-07 µg/mL and 0.0045 µg/mL
- TGI [21]: 6.3e-05 µg/mL and 0.012 µg/mL
- GI50 [4]: 1.1e-07 µg/mL and 0.0045 µg/mL
- outcome [22]: active and inactive
- TGI [23]: 3.1e-07 µg/mL and 0.0045 µg/mL
- GI50 [24]: 2.6e-07 µg/mL and 0.0045 µg/mL
- GI50 [25]: 1.4e-07 µg/mL and 0.0045 µg/mL
- GI50 [11]: 1.3e-07 µg/mL and 0.0045 µg/mL
- TGI [3]: 3.4e-07 µg/mL and 0.0045 µg/mL
- TGI [26]: 0.00027 µg/mL and 0.0045 µg/mL
